This passage reports activity change, negative = inhibition results from PubChem BioAssay AID1745853 (National Center for Advancing Translational Sciences (NCATS), 2022).

Structures are written as SMILES. This is one part of the list. Shown are side measurements of this screen, not its main read-out; they come without a call.

Common to all, as to experiment: Primary Screen for Target Class Profiling of Small Molecule Inhibitors of Methyltransferases
The target in assay [1] is Glycine N-methyltransferase (Homo sapiens) (UniProt Q14749). The conditions noted are these: purified enzyme, MTase-Glo SAH luminescence; measured here: GNMT inhibition; at 40 µM; stronger effect = lower value. Summed up: (§1)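 Each enzyme was assayed with SAM and its substrate. SAH formation detected by MTase-Glo luminescence; single-point 40 uM screen[…].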
Assay [2] deals with Guanidinoacetate N-methyltransferase (Homo sapiens) (UniProt Q14353). As to conditions: purified enzyme, MTase-Glo SAH luminescence; measured here: GAMT inhibition; at 40 µM; stronger effect = lower value. Summed up: as §1
Assay [3] deals with Histamine N-methyltransferase (Homo sapiens) (UniProt P50135). The conditions noted are these: purified enzyme, MTase-Glo SAH luminescence; measured here: HNMT inhibition; at 40 µM; stronger effect = lower value. In outline: as §1
Assay [4] concerns the target Nicotinamide N-methyltransferase (Homo sapiens) (UniProt P40261). As to conditions: purified enzyme, MTase-Glo SAH luminescence; measured here: NNMT inhibition; at 40 µM; stronger effect = lower value. In outline:
as §1

For assay [5], the target named is Phenylethanolamine N-methyltransferase (Homo sapiens) (UniProt P11086). As to conditions: purified enzyme, MTase-Glo SAH luminescence; measured here: PNMT inhibition; at 40 µM; stronger effect = lower value. Summed up:
as §1
On the % scale 0 is the no-effect control and ±100 the full control effect.

As for `CC12Cc3cn[nH]c3C=C1CCC1C2CCC2(C)C1CCC2(C)O` (stereo not given), the activity change, negative = inhibition in assay [1] is -10.6%; in assay [2] it was 5.11%; in assay [3] it was -2.05%; in assay [4], -16.8%; in assay [5] it was -2.65%.
In the case of `Cn1nc(-c2cccs2)cc1[C@H]1CN2CC[C@H]1C[C@@H]2CNC(=O)Nc1ccccc1`, the activity change, negative = inhibition in assay [1] is -4.99%; in assay [2] it was -3.4%; in assay [3], -24.4%; in assay [4], -9.63%; in assay [5], -13.7%.
In the case of `NCCc1c[nH]c2ccc(C(N)=O)cc12`, the activity change, negative = inhibition in assay [1] was -0.457%; in assay [2] it was 9.13%; in assay [3], -34.4%; in assay [4] it was -6.93%; in assay [5], 2.48%.
Turning to `CC(C)c1ccc(C2c3cccn3-c3ccccc3CN2C(=O)Nc2ccc(F)cc2)cc1` (stereo not given), the activity change, negative = inhibition was -1.7% in assay [1]; 3.88% in assay [2]; -4.53% in assay [3]; -6.07% in assay [4]; -2.04% in assay [5].
Taken in the same sequence, the figures for `CCOc1ccc(C2c3cccn3-c3ccccc3CN2C(=O)Nc2ccc(C)cc2Cl)cc1` (stereo not given) were -3.68%, 1.72%, -2.52%, -1.77% and -0.725%.
As to `COc1ccc(C2c3cccn3-c3ccccc3CN2C(=O)Nc2ccc3c(c2)OCCO3)cc1OC` (stereo not given), the activity change, negative = inhibition in assay [1] was 13.4%; in assay [2], 2.08%; in assay [3] it was 6.53%; in assay [4], 5.95%; in assay [5], 11.1%.
The like results for `Cc1ccc(Cl)cc1NC(=O)N1Cc2ccccc2-n2cccc2C1C` (stereo not given) were, in that order, 6.74%, 0%, 5.22%, 3% and 6.55%.
Taken in the same sequence, the figures for `O=c1c(-c2cccc(C(F)(F)F)c2)ccc2n1C[C@H]1C[C@@H]2CN(S(=O)(=O)c2cccs2)C1` were -3.94%, -11.5%, -2.54%, -17% and -13.4%.
Taken in the same sequence, the figures for `CN(C)c1cc2c(cc1Sc1nc3c(N)nccc3n1CCNCC(C)(C)C)OCO2` were -5.07%, -4.17%, -41.1%, -53.5% and -19.7%.
As for `CCN(CC)C(=O)c1ccc(C2=CC3(CCNCC3)Oc3cccc(O)c32)cc1`, the activity change, negative = inhibition was -0.431% in assay [1]; -2.91% in assay [2]; 3% in assay [3]; -20.5% in assay [4]; -1.13% in assay [5].
In the case of `O=S1(=O)N(CCN2CC=C(c3c[nH]c4cc(F)ccc34)CC2)c2cccc3c2N1CCC3`, the activity change, negative = inhibition in assay [1] is -3.45%; in assay [2], 10.7%; in assay [3] it was -51.7%; in assay [4] it was -9.22%; in assay [5] it was -5.25%.
The like results for `Cc1cn(C[C@H](N)C(=O)O)c(=O)n(Cc2cc(-c3ccccc3)sc2C(=O)O)c1=O` were, in that order, -5.32%, 3.51%, 9.82%, -8.7% and 3.85%.
As to `COc1ccc(C2c3cccn3-c3ccccc3CN2C(=O)Nc2ccc(C)cc2C)cc1OC` (stereo not given), the activity change, negative = inhibition was 7.5% in assay [1]; 0% in assay [2]; -2.61% in assay [3]; 1.5% in assay [4]; 5.27% in assay [5].
The like results for `O=C(Nc1ccccc1Cl)N1Cc2ccccc2-n2cccc2C1c1ccc(F)cc1` (stereo not given) were, in that order, 0.908%, 1.66%, 3.66%, -3.46% and 4.45%.
The like results for `C#C[C@H]1CN2CC[C@H]1C[C@@H]2CNC(=O)COCC(=O)O` were, in that order, -1.27%, -3.9%, -3.07%, -8.92% and -4.52%.
Taken in the same sequence, the figures for `CC1c2cccn2-c2ccccc2CN1C(=O)Nc1ccccc1F` (stereo not given) were 6.23%, 1.29%, 2.67%, -4.37% and 4.41%.
Regarding `CCn1cnc2c(Nc3cccc(Cl)c3)nc(N[C@@H]3CCCC[C@@H]3N)nc21`, the activity change, negative = inhibition in assay [1] was -9.87%; in assay [2] it was 0.252%; in assay [3], -29.5%; in assay [4], -24.7%; in assay [5] it was -5.35%.
With `O=C1Nc2ccc3ncsc3c2/C1=C/c1cnc[nH]1`, the activity change, negative = inhibition is -61.1% in assay [1]; -7.36% in assay [2]; -13.4% in assay [3]; -23.7% in assay [4]; -8.78% in assay [5].
For the compound `COc1ccc(OC)c(NC(=O)N2Cc3ccccc3-n3cccc3C2c2ccc(N(C)C)cc2)c1` (stereo not given), the activity change, negative = inhibition in assay [1] was 12.6%; in assay [2], 0%; in assay [3], 11.8%; in assay [4], 9.01%; in assay [5], 8.17%.
The like results for `CC1=CC2/C=C(\C)CCC(O)C(O)/C=C/C(=O)OC23C(=O)NC(CC(C)C)C3C1C` (stereo not given) were, in that order, -2.35%, 7.88%, 4.15%, -9.05% and -3.82%.
Taken in the same sequence, the figures for `CSc1ccc(C2c3cccn3-c3ccccc3CN2C(=O)Nc2ccccc2)cc1` (stereo not given) were 2.42%, 0.599%, 4.09%, 1.49% and 5.18%.
The like results for `CC[C@@H](C)[C@H]1C(=O)O[C@H](C(C)C)C(=O)N(C)[C@@H]([C@@H](C)CC)C(=O)O[C@H](C(C)C)C(=O)N(C)[C@@H]([C@H](C)CC)C(=O)O[C@H](C(C)C)C(=O)N1C` were, in that order, 5.34%, 4.88%, 13%, -8.22% and 0.243%.
Consider `Cc1ccc2c(c1)[C@H]1CN(C)CC[C@H]1N2C(=O)CSc1nnnn1-c1ccc(Cl)cc1`, for which the activity change, negative = inhibition was -0.381% in assay [1]; 1.16% in assay [2]; -5.3% in assay [3]; -14.3% in assay [4]; -5.42% in assay [5].
The like results for `CN(C)c1ccc(C2c3cccn3-c3ccccc3CN2C(=O)Nc2ccccc2C(F)(F)F)cc1` (stereo not given) were, in that order, 9.79%, 0%, 1.94%, 4.04% and 5.85%.
The like results for `CCOc1ccccc1NC(=O)N1Cc2ccccc2-n2cccc2C1c1cccs1` (stereo not given) were, in that order, -0.912%, 0.687%, 0.4%, -0.768% and 5.19%.
The like results for `Cc1cccc(NC(=O)N2Cc3ccccc3-n3cccc3C2c2ccc(N(C)C)cc2)c1` (stereo not given) were, in that order, 13.9%, 1.94%, 8.37%, 10.2% and 9.79%.
`CCOC(=O)Cc1ccc(NC(=O)N2Cc3ccccc3-n3cccc3C2c2ccc(C)cc2)cc1` (stereo not given): the activity change, negative = inhibition in assay [1] was 5.59%; in assay [2] it was 0%; in assay [3], 4.89%; in assay [4] it was 2.78%; in assay [5], 0.987%.
On to `CCOc1ccc(NC(=O)N2Cc3ccccc3-n3cccc3C2c2ccc(OCC)cc2)cc1` (stereo not given), for which the activity change, negative = inhibition in assay [1] was -10.2%; in assay [2] it was 0.061%; in assay [3], -3.8%; in assay [4], -4.1%; in assay [5] it was -3.86%.
